Test results: article PMC4354016, “Centromeric binding and activity of Protein Phosphatase 4” (Nature Communications, 2015)
These are yes or no findings as the source states them, for the method shown. Binding seen in cells or lysates may run through a third protein. Some binding calls cover weakened binding; strength is not graded here. Tags and fused reporters may be left off the sequences shown.

Legend:
[1] = molecular target: T1, GST::CENP-C^FBD (Drosophila melanogaster) (UniProt Q9VHP9); test: pull-down; GST::CENP-C^FBD on Glutathione Sepharose 4b incubated with wild-type (Oregon-R) syncytial embryo extract, 3 h 4 °C; Western blot; only the target purified
T1 sequence: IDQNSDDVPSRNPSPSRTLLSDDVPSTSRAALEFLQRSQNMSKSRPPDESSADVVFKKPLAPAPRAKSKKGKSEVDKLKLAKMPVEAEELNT

[2] = molecular target: T2, FLAG::CENP-C^FBD (Drosophila melanogaster) (UniProt Q9VHP9); test: co-IP; FLAG::CENP-C^FBD purified from ~10^9 stably transfected D.Mel-2 cells on anti-FLAG M2 magnetic beads; immunoblot
T2 sequence: T1 sequence

[3] = molecular target: T1, GST::CENP-C^FBD (Drosophila melanogaster); test: pull-down; GST-tagged bait on Glutathione Sepharose 4b, IVTT 35S-Met-labelled prey, 1 h 25 °C, 50 mM HEPES pH 7.4, 150 mM NaCl, 0.1% Triton X-100, 0.5 mg/ml BSA; autoradiography; only the target purified
[4] = molecular target: T3, GST::FBD^ΔFIM (Drosophila melanogaster) (UniProt Q9VHP9); test: as above
T3 sequence: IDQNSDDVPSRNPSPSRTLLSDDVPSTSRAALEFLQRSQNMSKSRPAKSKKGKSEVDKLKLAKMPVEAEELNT

[5] = molecular target: T4, GFP::Flfl^1–168 (Drosophila melanogaster) (UniProt Q9VFS5); test: co-IP; GFP-Trap beads; D.Mel-2 cells expressing FLAG::CENP-C (WT or ΔFIM) transiently co-transfected with GFP-tagged Flfl forms; immunoblot
T4 sequence: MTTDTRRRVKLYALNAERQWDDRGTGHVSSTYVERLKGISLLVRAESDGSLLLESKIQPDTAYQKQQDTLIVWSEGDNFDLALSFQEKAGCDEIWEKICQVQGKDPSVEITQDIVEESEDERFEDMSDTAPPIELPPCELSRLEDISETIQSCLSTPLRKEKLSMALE

B1: Falafel (Flfl), endogenous (protein, UniProt Q9VFS5 1-980)
chain: MTTDTRRRVKLYALNAERQWDDRGTGHVSSTYVERLKGISLLVRAESDGSLLLESKIQPDTAYQKQQDTLIVWSEGDNFDLALSFQEKAGCDEIWEKICQVQGKDPSVEITQDIVEESEDERFEDMSDTAPPIELPPCELSRLEDISETIQSCLSTPLRKEKLSMALESESYIKKLLNLFHVCEDLDNTEGLHHLFEIFKNIFLLNKNALFEIMFADDTIFDVVGCLEYDPSVSQPKKHRQYLKQLAKFREAVPIKNLDLLAKIHQTFRVQYIQDIILPTPSVFVEDNMLNTLSSFIFFNKVEIVTMIQDDERYLLDVFAVLTDPTTGDAKRRDTVLFLKEFCNYAQNLQPQGKDSFYKTLTCLGILQALELTLVMNDKKTKSASIDILTAIVEFSPLVVRNYTLNQANRPEVERMLLNIAIEQMLNDSEPELGIAVQLMGIVKILLEPENMLTEKGDFLNFFYKYSVQTLVAPVILNTIGDRPQNEDYQTAQLLGIVLDILSFCVEHHSYHIKNFLLQKDLLKRILVLMKSTHTFLVLGALRLLRKIIALKDEFYNRHIVKCNLFAPVVDAFIRNNGRYNLLESAILELFEFIKLEDIRTLCVYFVENFSKIFDEIEYVQTFKYLKNRYDQYQDRLKDRDKMENRTDGGLPIIRSGGRFRRDQRQMEEEEEMWFNEEDDFTEEIDTYNNVMKSVSEKNGPQTQNQQKSSPPHSTSPHSGLLGSLSTTASSTATSATSGAPVASGSSSPEAISADEQTQAAVHLAAAALQHHQQQQQQQQQNPFQQQTQPEIAELQQQLSSVEAPQSQELELSQSAAASASPTSSSSSLEASTSSSSASSSSSSSSSSSPPGSSAAASLCDSATVAAVAASQFLSTIATAMAASVTAAAATNSSPSISPAPAVSSPDIENADAQLPPSDDASSPASGEQDANSTEGTSSEADKTTAKKGLVDYESDSGEDDYEEDEYSEGPQAQKRARQA
With B1 the binding [1] was “binds” and the binding [2] was “binds”.

B2: ^35S-Met-labelled Flfl^1–168 (IVTT) (domain or fragment, UniProt Q9VFS5 1-168)
chain: T4 sequence
modifications: 35S-methionine labelled
For B2, the binding [3] was “binds” and the binding [4] was “no binding”.

B3: FLAG::CENP-C^WT (protein, UniProt Q9VHP9 1-1411)
chain: MSKPQNNDTLELDDILSQPVKDKERFAAFMMRKLAENKPAQNDNLFGNFKLDFDLDFEVPLIKKSQAKPKSKLPEVQPLGELVSKNSAATEKVNEPPVDQAPNENVPPRRSPTLSPNNRRSMRRSGNVPGSDKLRRHAIRRRSRSCGRQLLPEFEETVNLTRSISSPVNFLPEISSTPCTEKQKEEVAKNTTRVETDKPAEKPMELSQEPEPENPLQTKVTSPARNPILAAEIEQICKERQSSFHKNVLQLDYSGRAPYSRPPTPSSPSVAGLRRTYTMEKGPAPGQLLLSPSHRYDTPSKMPVVKAKRFNQELMVPDTPERQSHDPAWQSEPQPEFVVPETQPQDLGELVQTLSRSAISPIVVINTSNSNRSVRRDAVAMKSVPTSPVTALSSPPIAPSPRRSAAASPQKSIAQLPRVEENMDAIMTDDESDEHPSTVPLNLAPSGGNTTRQRRLRSSNRARATIESQESSMRLLNLHKSVNAKKSKPRKTAIPLNKAPSAPINGEQFARELTRMSNYEILDLRKRNSLNEIYPLNGHRNHRSEKLILEEEIQRELLRRNLMDEAEGLPKQQSSDDSNEDYIPVPPKTQSLRTKSNDRSQGRGRPRSTRRDLPMTTELVNYLGLSQTLETRRKSSKDGKRCLYTKGSSDHEDNDSLSPVKLPRLSKSIQIVPPPPVSLRYSQSLQNLPCSGKFDFDNVVMAAPPDFHDSVNSDAIEIAPPPPEYVVNTRGRSTSGRKSNKNDLVLPPPGYEGGQEEEHDERPSQPRCTAKELQQSTQNGRRAMENELVPPPIEYVEEENRNNEQSRRSTKNGNLVDRNTHNAVEYCEPPEPPEYDDSDHGQASILRRSGKKLQHSKQSVQKSNKEQIIAPSYENNEDYDSDEEPIYNEEYGKEESQNKNVTRRKSDKDEMASHTLECIEGPDPNWNSSCNKQNRNHQNASKSKENDKLANRSSKSQKLSNPRQNAVGTEKSVALSNRGEECTEKSSDVMESLRVNTPTPPIDQNSDDVPSRNPSPSRTLLSDDVPSTSRAALEFLQRSQNMSKSRPPDESSADVVFKKPLAPAPRAKSKKGKSEVDKLKLAKMPVEAEELNTTGIRRSKRGQVPLQMSWCHTMDPSKFNFMSGFIEPRSKNSKTKKGNLSKAKKASATKPKPTVEKNLPDNRGPLCSSTPRISEKLPGAIPHSESLGLSTLTWEETEVQAEAEKVPKKRGRPKKAVGGVQTDTEAEPEPEPEPMISSVAPLTSDQEEPDVPDEQAPYTEAALGPVVFSTPLRDEQEEASTKLMQWLRGVGDAPPSASMSDENASVSSANELIFCQVDGIDYAFYNTKEKAMLGYMRFKPYQKRSMKQAKVHPLKLLVQFGEFNVETLAVGEEKEVHSVLRVGDMIEIDRGTRYSIQNAIDKVSVLMCIRS
B3 was tested, and the binding [5] was “binds”.

B4: FLAG::CENP-C^ΔFIM (protein, UniProt Q9VHP9)
chain: MSKPQNNDTLELDDILSQPVKDKERFAAFMMRKLAENKPAQNDNLFGNFKLDFDLDFEVPLIKKSQAKPKSKLPEVQPLGELVSKNSAATEKVNEPPVDQAPNENVPPRRSPTLSPNNRRSMRRSGNVPGSDKLRRHAIRRRSRSCGRQLLPEFEETVNLTRSISSPVNFLPEISSTPCTEKQKEEVAKNTTRVETDKPAEKPMELSQEPEPENPLQTKVTSPARNPILAAEIEQICKERQSSFHKNVLQLDYSGRAPYSRPPTPSSPSVAGLRRTYTMEKGPAPGQLLLSPSHRYDTPSKMPVVKAKRFNQELMVPDTPERQSHDPAWQSEPQPEFVVPETQPQDLGELVQTLSRSAISPIVVINTSNSNRSVRRDAVAMKSVPTSPVTALSSPPIAPSPRRSAAASPQKSIAQLPRVEENMDAIMTDDESDEHPSTVPLNLAPSGGNTTRQRRLRSSNRARATIESQESSMRLLNLHKSVNAKKSKPRKTAIPLNKAPSAPINGEQFARELTRMSNYEILDLRKRNSLNEIYPLNGHRNHRSEKLILEEEIQRELLRRNLMDEAEGLPKQQSSDDSNEDYIPVPPKTQSLRTKSNDRSQGRGRPRSTRRDLPMTTELVNYLGLSQTLETRRKSSKDGKRCLYTKGSSDHEDNDSLSPVKLPRLSKSIQIVPPPPVSLRYSQSLQNLPCSGKFDFDNVVMAAPPDFHDSVNSDAIEIAPPPPEYVVNTRGRSTSGRKSNKNDLVLPPPGYEGGQEEEHDERPSQPRCTAKELQQSTQNGRRAMENELVPPPIEYVEEENRNNEQSRRSTKNGNLVDRNTHNAVEYCEPPEPPEYDDSDHGQASILRRSGKKLQHSKQSVQKSNKEQIIAPSYENNEDYDSDEEPIYNEEYGKEESQNKNVTRRKSDKDEMASHTLECIEGPDPNWNSSCNKQNRNHQNASKSKENDKLANRSSKSQKLSNPRQNAVGTEKSVALSNRGEECTEKSSDVMESLRVNTPTPPIDQNSDDVPSRNPSPSRTLLSDDVPSTSRAALEFLQRSQNMSKSRPAKSKKGKSEVDKLKLAKMPVEAEELNTTGIRRSKRGQVPLQMSWCHTMDPSKFNFMSGFIEPRSKNSKTKKGNLSKAKKASATKPKPTVEKNLPDNRGPLCSSTPRISEKLPGAIPHSESLGLSTLTWEETEVQAEAEKVPKKRGRPKKAVGGVQTDTEAEPEPEPEPMISSVAPLTSDQEEPDVPDEQAPYTEAALGPVVFSTPLRDEQEEASTKLMQWLRGVGDAPPSASMSDENASVSSANELIFCQVDGIDYAFYNTKEKAMLGYMRFKPYQKRSMKQAKVHPLKLLVQFGEFNVETLAVGEEKEVHSVLRVGDMIEIDRGTRYSIQNAIDKVSVLMCIRS
For B4, the binding [5] was “no binding”.
